This note sets out measurements from PMC12136788.

T1: UNK ZnF1-3 (human, UniProt Q9C0B0 31-174)
T1 sequence: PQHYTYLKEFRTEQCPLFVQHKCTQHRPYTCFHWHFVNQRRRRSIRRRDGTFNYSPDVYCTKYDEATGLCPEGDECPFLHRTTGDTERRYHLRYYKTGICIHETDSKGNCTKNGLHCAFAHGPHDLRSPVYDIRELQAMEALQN

B1: chr8:95500983:95500984:-_ENSG00000164944_ENST00000437199|hu_hu|hu_hu_hu_mus_True|38_108 (ssRNA)
RNA: GGGAGUUCUACAGUCCGACGAUCAGAAGGAUUUUUACGAGUAAAGGACCGUACAUGACGGCCUCUACCACUGCCUCCACUAACAAACUUUCCUCUCUGAGCCUCCAUGCCGCUAUUUGUACUAGCCCAGGACGGUCCCAGGCCCAACAGAGGAUUGAGCAUCA
B2: chr10:98281081:98281082:-_ENSG00000077147_ENST00000371142|hu_hu|FALSE|FALSE (ssRNA)
RNA: GGGAGUUCUACAGUCCGACGAUCAAGAAAAAAGUACUCUGUAGUCGAUCUGUACAUCCAAAUGCAUUUGGGAAUCUACACCUACGUUACAUUAUUUAAUGUUAUAUACAUUUAUUACCCACCCCCCUUGUUUUUAAUAAUUUCCAACAGAGGAUUGAGCAUCA
B3: chr2:5814250:5814251:-_ENSMUSG00000025816_ENSMUST00000102981|mus_hu|motif|central (ssRNA)
RNA: GGGAGUUCUACAGUCCGACGAUCUUCCUUUCCGGUUUCUGAAUUUCUGGUAGAACUGCACAGAAUGGUUUGAUAACUUCGGAAAAUUUGAUGCCCAUGGCUGCUGCUGGGGAGGCCCAGGGGGAAACCGCGGCCUCGGCGCUGCAACAGAGGAUUGAGCAUCA
B4: chr7:10978501:10978502:-_ENSG00000189043_ENST00000339600|hu_hu|FALSE|FALSE (ssRNA)
RNA: GGGAGUUCUACAGUCCGACGAUCAUUGAACAAUGCCAGACGCAAGAGAUACAGUGUUGCUCCAGUAGCUCCAGUUCCAAUAAAUACAAAGAGGGGGAUCAAGCUCGGAUGCUUCUUGGCCUGACCGAUGAUCUGGCGGAGCAUCAACAGAGGAUUGAGCAUCA
B5: chr1:52246310:52246311:-_ENSMUSG00000026103_ENSMUST00000114513|mus_hu|motif|central (ssRNA)
RNA: GGGAGUUCUACAGUCCGACGAUCGCCCAUCUUAUCCAGAGGAGGAGACCAGCACAUCAUACCCAUAACAUUGGGGACAACGGAAAGAAUGCCCCCAGCAACUCCAGAUUUUGCAGGAAGACCAACAUGGAAAGCAAACUGCCCCAACAGAGGAUUGAGCAUCA
B6: chr11:86887402:86887403:-_ENSMUSG00000061666_ENSMUST00000020804|mus_hu|FALSE|FALSE (ssRNA)
RNA: GGGAGUUCUACAGUCCGACGAUCAGAGAUGUGUUUACUGAGGAAUCGCUGCUUCUUUCUCUGGUGCAGCAAGGUCGGGUAUUUAAGCAACAAGAAUGAGGUCACCAAGUAUCCUCCUAGCGUAGAGAGAAGGUAAAAAGCCGCCAACAGAGGAUUGAGCAUCA
B7: 53988852_53988972_2293_3pUTR_ENSMUSG00000061603_ENSMUST00000095737|mouse|control|control (ssRNA)
RNA: GGGAGUUCUACAGUCCGACGAUCUGUAGCAGAAUGGCUCUCAUUCUUCUCAGAGGAUGAAGGUCUCUCUGAUUUCUCAUCAGUGAACUUUUUCAUGCCGGAGAGGGGCAUACAUAAGUCCUCAUCAGAAAGAAUGUCACUCAGCAACAGAGGAUUGAGCAUCA
B8: chr2:144966258:144966259:-_ENSG00000121964_ENST00000344850|hu_hu|FALSE|FALSE (ssRNA)
RNA: GGGAGUUCUACAGUCCGACGAUCUGUCCGGGCUCUCCAAUGCCAUUUCUUUGCAGGAAGGGUAUAAACGACACAGUCUCCUAACUCUUCUUGAAGAAGAUCCACCAGCUGUUUAUGGGAGCCUCCAUAGAAUGCUUCAAUGAUCAACAGAGGAUUGAGCAUCA
B9: chr19:8913112:8913113:-_ENSMUSG00000071658_ENSMUST00000096259|mus_mus|FALSE|FALSE (ssRNA)
RNA: GGGAGUUCUACAGUCCGACGAUCAAGCUGGCCUCAAUCUUAAGCUGUUCCACCAUCUUGCGUGCUUGACCAAUACUCAUAGUGCUGUUAACGGGGGUCUCCCCUUUCAUCCUGAAGUAACAGCAGCGGCAGCCAGGGAUGUAGCAACAGAGGAUUGAGCAUCA
B10: chr5:36177297:36177298:+_ENSG00000145604_ENST00000274255|hu_hu|FALSE|FALSE (ssRNA)
RNA: GGGAGUUCUACAGUCCGACGAUCCUUUAGCAUGACACUAUCACUUAAGUCUAGAUGGACAAGAUUGGGGCAUCUUCUAACUAAAGUAGAGAGAUCUGAUUUCUGGAGAUUCUUUCUGUAGCCGCUAAGAUUCAGCUGGGUGAUCAACAGAGGAUUGAGCAUCA
B11: chr12:48362563:48362564:+_ENSG00000134291_ENST00000256686|hu_hu|hu_hu_hu_mus_False|8_68 (ssRNA)
RNA: GGGAGUUCUACAGUCCGACGAUCUCCGUCAAGCCCUUCGAUAGACCCUUGCGGGGGAAACUGUAAUAAUUCUAACUGGGGAAGGAAAAGAAACGCCAAAAACUUUCCAAAAAGCGGGGGUGGGGUGUCCCAGGCCUGGGAGGUCAACAGAGGAUUGAGCAUCA
B12: chr4:115894766:115894767:+_ENSMUSG00000028698_ENSMUST00000030464|mus_hu|mus_mus_mus_hu_True|98_98 (ssRNA)
RNA: GGGAGUUCUACAGUCCGACGAUCUUCCACACGGAAAGUACUUGGGGGUUUUCCAACGGCCAGUACCAGUCCGGCCAAACUACCCGAACAGGGUCCUCCCCCUCUCUCCUACAGAACACAACAAAAUGCCCCCGAACUUUCAAGCAACAGAGGAUUGAGCAUCA
B13: chr5:128440902:128440903:+_ENSG00000066583_ENST00000173527|hu_mus|hu_hu_hu_mus_True|8_98 (ssRNA)
RNA: GGGAGUUCUACAGUCCGACGAUCUUGAACGGUGCUGCCAAGACCUUUGGGGUAUUGUUCCGUUAUGAUAACUGGAAUCCCUAAGAUCCGAGCUCCUUGCAACAGUCUCUGUCCCACACUAAUGAUGUCCCCAAAAUAUUUGAUCAACAGAGGAUUGAGCAUCA
B14: chr4:33332862:33332863:-_ENSMUSG00000040128_ENSMUST00000049357|mus_hu|FALSE|FALSE (ssRNA)
RNA: GGGAGUUCUACAGUCCGACGAUCAUAUACAAAACACCUGCAAUGUGGGCAGGGCAAAAUACAUACUUUCAUAACAAAACUAUAAUAUACCUCUCAAGUAUGAACAAUAUACACAUAAUACAUGGUAUACAGUAUUUACAAAAUCAACAGAGGAUUGAGCAUCA
B15: chr4:39507275:39507276:-_ENSG00000109814_ENST00000316423|hu_mus|FALSE|FALSE (ssRNA)
RNA: GGGAGUUCUACAGUCCGACGAUCACUGGAGGAUUCUCUGGUAUCACCAGUAUCCUUUUUGAAUGCAAACCCCAAGAUAGCUAUCUUCUUAUCGGUCACUGUAUUAAACAGGCUAUCUAUGAUCCGUGAUGCAAACCUCCUCCUCAACAGAGGAUUGAGCAUCA
B16: chr1:220276048:220276049:+_ENSG00000067704_ENST00000302637|hu_hu|hu_hu_hu_mus_True|58_78 (ssRNA)
RNA: GGGAGUUCUACAGUCCGACGAUCGCAAAUUGCCUGGUUGGCGGGAAUUGUCCAAGGUUGUGUGGUCCAAACUAAAAUACUAACAGGGGAUGAGGCAUCUGUAAGAGACUCCAACUUCGGAGGAGGUCUCAGGAGGGGGAAUCUCAACAGAGGAUUGAGCAUCA
B17: chr12:16048344:16048345:+_ENSG00000023734_ENST00000419869|hu_hu|hu_hu_hu_mus_True|1_68 (ssRNA)
RNA: GGGAGUUCUACAGUCCGACGAUCAGAUCGUCCAUAAGUAAUAACCAAAAUCUCUCCUUCAGGAAUAUAUUCCAUACUGCUAACAGACAUAUUAAAAUUCAGAGAUUUCACUUCUGUCAUUGUGGCAUGAUCCCAGAGUCGAACCAACAGAGGAUUGAGCAUCA
B18: chr2:9570881:9570882:+_ENSG00000119203_ENST00000238112|hu_mus|hu_hu_hu_mus_False|28_98 (ssRNA)
RNA: GGGAGUUCUACAGUCCGACGAUCACUUGUCUUCUGAAGAAACCAGGGCAGGGCUCCACAGUGAUCCAAAUGGAAAUGACUGAUCAACAGAAGGUCGAUCUCAGCUGGGUCAAUUAAGUCAAUGUAAGGAAGGGCAUCCAUUCCCAACAGAGGAUUGAGCAUCA
B19: chr1:109605286:109605287:-_ENSG00000197780_ENST00000461096|hu_mus|hu_hu_hu_mus_True|18_88 (ssRNA)
RNA: GGGAGUUCUACAGUCCGACGAUCAAGUUUCAGAGUAACAUUCAGUAUACUUAAAUCAUGCAAUUAUCCUUAUUAUAAGCUAAGCAGAAUAAUAAUUUAAUACCGUAAGUGAACUACCACAAAACCUUGAACCGCGAAAAUGGUCAACAGAGGAUUGAGCAUCA
B20: chr1:46159212:46159213:+_ENSG00000159596_ENST00000372025|hu_mus|hu_hu_hu_mus_True|8_18 (ssRNA)
RNA: GGGAGUUCUACAGUCCGACGAUCUCUGAUCCCUCCCAAGAAAGCUAGGAAACCGGCUCCAUAAGCCAUCUGAGUGAAAGCUAGGACGGGGAUAUAAGACUUUGUUAUUACCAUGAGCAGUGGUGGAGCAACGAAGGGGAUUAACAACAGAGGAUUGAGCAUCA
B21: chr6:75950928:75950929:-_ENSG00000112695_ENST00000509698|hu_mus|FALSE|FALSE (ssRNA)
RNA: GGGAGUUCUACAGUCCGACGAUCUGGCAUCCCAUUAUCCUCCUGAAACAGCUUUUGUUUCUCUGGAACCUUGUUUUCAAAAUGCCUUCGUGAAGUGGUGCUGAUGGUCCUCUGGGCAAUCUGACGAAGGGCCAGCAGAUUCCGCAACAGAGGAUUGAGCAUCA
B22: chr3:150459880:150459881:-_ENSG00000181788_ENST00000312960|hu_hu|FALSE|FALSE (ssRNA)
RNA: GGGAGUUCUACAGUCCGACGAUCUUGUGAAGACAUAUGGAAUAAAACAUCUAUAAAAACCUUUAUUAAACAUAGAGCACUAUGCCCAAAUAAUUUUGAAGGUUUACGAAAGUCACAUCAUGGACAACAUGUAGAAAUAGUAACCAACAGAGGAUUGAGCAUCA

Some of the results follow.

The experiment deals with T1, UNK ZnF1-3. As to the kind of experiment: nsRBNS (natural sequence RNA bind-n-seq); RBNS binding buffer (assumed for nsRBNS): 25 mM Tris pH 7.5, 150 mM KCl, 3 mM MgCl2, 0.01% Triton X-100, 500 ug/ml BSA, 20 U/ml SUPERase-In, 4 C; UNK is unkempt and MSI1 is Musashi-1; names of the RNAs are library labels; protein concentration not given here; high values mean tight binding.
In turn, B1 yielded a binding signal of 0.956 enrichment R.
The figure for B2 is 1.97 enrichment R; for B3 it is 1.34 enrichment R; for B4 it is 1.85 enrichment R.
The figure for B5 is 1.86 enrichment R.
In the case of B6, the binding signal came out at 0.911 enrichment R.
The figure for B7 is 0.901 enrichment R.
In the case of B8 it was 0.786 enrichment R.
As to B9, the binding signal was 1.14 enrichment R.
In the case of B10 it was 0.807 enrichment R; in that of B11, 2.08 enrichment R.
In the case of B12 it was 1.15 enrichment R; in that of B13, 0.629 enrichment R; in that of B14, 0.688 enrichment R.
B15: the binding signal is 0.95 enrichment R.
In the case of B16 it was 2.17 enrichment R.
In the case of B17 it was 1.02 enrichment R; in that of B18, 1.7 enrichment R; in that of B19, 0.64 enrichment R.
In the case of B20 it was 2.28 enrichment R; in that of B21, 0.788 enrichment R; in that of B22, 0.785 enrichment R.
